# Data as given in PubChem BioAssay AID1963320 (National Center for Advancing Translational Sciences (NCATS), 2024).
# In all, about 1,300 compounds went through this assay and about 560 (43%) were called active. So high a share suggests a set chosen from earlier hits. Inconclusive results, whose numbers are uncertain, are shown with a selection of clear calls. Calls follow the shape of the dose curve; as a rule, active = well fitted inhibition curve with a large enough effect; inconclusive = small, poorly fitted or top-dose-only effect; inactive = flat fitted curve, though single readings scatter. Potencies of inconclusive entries are doubtful fits and often do not repeat.
# Biological target: Luciferin 4-monooxygenase (Photinus pyralis) (UniProt P08659)
# Sequence of UniProt P08659 (P08659 whole entry, looked up): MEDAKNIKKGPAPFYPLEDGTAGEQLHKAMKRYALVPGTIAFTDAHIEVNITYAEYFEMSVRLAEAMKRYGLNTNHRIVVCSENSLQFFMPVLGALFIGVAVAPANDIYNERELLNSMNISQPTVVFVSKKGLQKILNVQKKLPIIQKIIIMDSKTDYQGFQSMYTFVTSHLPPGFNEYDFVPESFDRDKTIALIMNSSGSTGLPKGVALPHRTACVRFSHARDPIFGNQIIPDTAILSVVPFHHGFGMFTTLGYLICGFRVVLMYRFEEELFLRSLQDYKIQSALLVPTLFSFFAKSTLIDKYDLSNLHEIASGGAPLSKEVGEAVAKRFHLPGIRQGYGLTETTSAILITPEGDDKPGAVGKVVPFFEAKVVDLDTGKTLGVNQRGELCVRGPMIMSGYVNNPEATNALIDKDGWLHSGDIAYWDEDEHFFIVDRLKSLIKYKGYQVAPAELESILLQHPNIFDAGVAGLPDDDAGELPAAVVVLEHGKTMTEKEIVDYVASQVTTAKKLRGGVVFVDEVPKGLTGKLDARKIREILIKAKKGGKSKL
# Test: Firefly luciferase (FLuc-C-HiBiT) enzymatic inhibition screen - Functional assay
# Conditions: purified FLuc-C-HiBiT enzyme, luciferin luminescence; series mostly up to 32.7 µM
# Outline: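 With 10 uM ATP present, 10 nM FLuc-C-HiBiT enzyme sits with compounds for >30 min at room temperature away from light. Substrate D-luciferin is added to 10 uM (KM), and emitted light is captured after 5-10 min by CCD camera with 10 s exposure.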
# Also: nearly all actives have a fitted effect of over 70% in size.
# Potency is read from the fitted curve at half-maximal effect; tags tell the direction and shape of the fitted curve.
row,SMILES,Potency
1,CCN(CC)CCOc1ccc(-c2nc3cc(Cl)ccc3s2)cc1,"inconclusive: 25.4 µM [inhibitor, partial curve]"
2,CN1CCN(c2ccc(-c3cc4c(ccn4C)c(C(=O)NCC4CCC(=O)N4)n3)cc2)CC1 (stereo not drawn),"inconclusive: 15.7 µM [inhibitor, partial curve]"
3,Cc1ccccc1CN1CC[C@H](c2nc3ccc(F)cc3[nH]2)C1,"inconclusive: 25.5 µM [inhibitor, partial curve, poor fit]"
4,COc1ccccc1CN1CCc2nc(C(=O)Nc3ccccc3)oc2CC1,"inconclusive: 16.1 µM [inhibitor, partial curve]"
5,CC(=O)c1ccc(NC(=O)CSc2nnc(NC(=O)Nc3ccccc3)s2)cc1,"inconclusive: 0.881 µM [inhibitor, full curve]"
6,COc1ccc(CCNc2nc3ccccc3c3nc(-c4cccc(C)c4)nn23)cc1OC,"inconclusive: 11.1 µM [inhibitor, partial curve]"
7,CSCc1nc(-c2ccncc2)nn1Cc1ccc2c(c1)OCO2,inactive
8,CCNC(=O)N[C@@H]1C=C[C@@H](c2c(C)nn(-c3ccc(F)cc3)c2C)C1,"inconclusive: 20.2 µM [inhibitor, partial curve]"
9,O=C(NCC1CCCN(C(=O)N2CCCC2)C1)c1ccc(-c2ccccc2)cc1 (stereo not drawn),"inconclusive: 12.4 µM [inhibitor, partial curve]"
10,Cn1cc(CN2CCc3nc(C(=O)Nc4ccccc4)oc3CC2)cn1,"inconclusive: 18 µM [inhibitor, partial curve]"
11,O=C(Nc1ccc(-c2nc3ccccc3s2)cc1)c1c(F)c(F)c(F)c(F)c1F,inactive
12,Cn1ccnc1CN1CCNc2cc(Nc3ccccc3)ncc2C1,"inconclusive: 16.1 µM [inhibitor, partial curve]"
13,O=C(Nc1ccc2c(c1)OCCO2)N1CCC2(CC1)CC(N1CCCC1)CCO2 (stereo not drawn),"inconclusive: 11.1 µM [inhibitor, partial curve]"
14,CCCCOc1nc(N)c2[nH]c(=O)n(CCCN(CCCN3CCOCC3)Cc3cccc(CC(=O)OC)c3)c2n1,inactive
15,COc1ccc(C(=O)Nc2cc(C)c(O)c(-c3nc4ccccc4s3)c2)cc1OC,"inconclusive: 1.4 µM [inhibitor, full curve]"
16,CC(C)Oc1cccc(-c2cccc(COc3ccc4c(cnn4CC[S+](C)(=O)[O-])c3)c2)c1,"inconclusive: 11.1 µM [inhibitor, partial curve]"
17,Cc1ccc2nc(-c3ccc(NC(=O)COc4ccccc4C(C)(C)C)cc3)sc2c1,"inconclusive: 14 µM [inhibitor, partial curve]"
18,Cc1ccc(-n2ncc3c(N4CCCCC4)nc(NCCCO)nc32)cc1,inactive
19,Cc1ccc2oc(C(=O)Nc3cccc(-c4nc5ccccc5s4)c3)c(C)c2c1,"inconclusive: 9.89 µM [inhibitor, partial curve, poor fit]"
20,CCC(=O)Nc1cc(-c2nc3ccccc3s2)c(Cl)cc1Cl,inactive
21,CC(C)(C)c1ccc(C(=O)Nc2ccc(C(O)[C@H]3COCC(=O)N3Cc3ccccc3)cc2)cc1 (stereo partly drawn),inactive
22,COc1ccccc1-c1nc2cc(NC(=O)c3ccccc3Cl)ccc2o1,"inconclusive: 11.1 µM [inhibitor, partial curve, poor fit]"
23,COc1ccc(NC(=O)Nc2cccc(-c3ccc(N4CCOCC4)nn3)c2)cc1Cl,active: 1.24 µM

row,SMILES,Potency
1,COc1ccc(CN(C(=O)c2cc3ccccc3oc2=O)C2CCS(=O)(=O)C2)cc1OC (stereo not drawn),inactive
2,c1ccc(Nc2ncc(-c3cccnc3)c3c2OCC3)cc1,"inconclusive: 22.6 µM [inhibitor, partial curve]"
3,COCCNc1cc(-c2ccc3ccccc3n2)c2cc[nH]c2n1,"inconclusive: 12.4 µM [inhibitor, partial curve]"
4,COc1ccc(-c2noc([C@@H]3C[C@H](NCc4ccccn4)CN3C)n2)cc1,"inconclusive: 20.2 µM [inhibitor, partial curve, poor fit]"
5,O=C1c2cnc(-c3cccc(CO)c3)nc2OCCN1c1cccc(C(F)(F)F)c1,"inconclusive: 20.2 µM [inhibitor, partial curve]"
6,Cc1ccc(CN2C(=O)OC(c3cccc(NC(=O)c4ccc(C)cc4)c3)C2C(=O)NCC(C)C)cc1 (stereo not drawn),"inconclusive: 8.81 µM [inhibitor, partial curve]"
7,c1ccc(-c2cn3c(n2)CO[C@@H](CNCc2cccs2)C3)cc1,"inconclusive: 20.2 µM [inhibitor, partial curve]"
8,Cc1cc(C)cc(Nc2nc(-c3ccccc3F)no2)c1,active: 6.24 µM
9,Cn1ccnc1CN1CCc2nc(C(=O)Nc3ccccc3)oc2CC1,"inconclusive: 20.2 µM [inhibitor, partial curve]"
10,CCOc1ccc(-c2cc3c(=O)n(CCNC(=O)c4cccc(C#N)c4)ccn3n2)cc1,"inconclusive: 0.7 µM [inhibitor, full curve]"
11,O=C(Nc1ccccc1-c1nc2ccccc2s1)c1cc(Cl)cc(Cl)c1,inactive
12,COc1cc(NC(=O)c2ccc(-c3ncn[nH]3)cc2)ccc1NC(=O)C(C)(C)C,"inconclusive: 12.4 µM [inhibitor, partial curve]"
13,COc1cccc(-c2noc(COc3ccccc3Cl)n2)c1,"inconclusive: 11.1 µM [inhibitor, partial curve, poor fit]"
14,CCc1cccc(-n2nnc(-c3nsc(NC(=O)c4cccs4)n3)c2C)c1,inactive
15,COc1ccc(C(=O)Nc2ccc(-c3nc4ccccc4s3)cc2C)cc1Cl,inactive
16,COc1ccc(-c2cn3nc(N4CCCC(C(=O)NCc5ccccc5OC)C4)sc3n2)cc1 (stereo not drawn),"inconclusive: 11.1 µM [inhibitor, partial curve]"
17,COc1ccc(-c2cc(N3CCCC(NC(=O)c4ccncc4)C3)n[nH]2)cc1 (stereo not drawn),"inconclusive: 11.1 µM [inhibitor, partial curve]"
18,Cc1csc(NC(=O)c2ccc3c(c2)OCC(=O)N(C)C3)n1,"inconclusive: 18 µM [inhibitor, partial curve]"
19,COc1ccc(-c2nc3ccccc3s2)cc1NC(=O)c1cccc(F)c1,inactive
20,O=C(Nc1nc2c(s1)CCCC2)c1ccccc1F,active: 0.556 µM
21,Cc1ccc2nc(-c3ccc4nc(-c5ccc(NC(=O)c6cccc(Cl)c6)cc5)sc4c3)sc2c1S(=O)(=O)O,"inconclusive: 4.42 µM [inhibitor, full curve]"
22,NC(=O)[C@@H]1CCCN1C(=O)c1ccc2oc(-c3cccc(F)c3)nc2c1,inactive
23,O=C(O)c1cccc(-c2noc(-c3ccccc3C(F)(F)F)n2)c1,active: 0.0624 µM

row,SMILES,Potency
1,CCn1ncc(NC(=O)Cn2ncc3cc(-c4ccc(C)cc4F)ccc32)n1,"inconclusive: 12.4 µM [inhibitor, partial curve]"
2,Cc1ccc(NCc2nc3ccccc3n2CCOc2ccccc2)cc1,"inconclusive: 11.1 µM [inhibitor, partial curve]"
3,O=C(NCc1ccncc1)C1CCN(C(=O)c2ncn3c2COC(c2ccc(F)cc2)C3)CC1 (stereo not drawn),"inconclusive: 11.1 µM [inhibitor, partial curve]"
4,CCOCC1(C)COc2ccc(C(=O)Nc3ccc(Cl)cc3)cc2N1 (stereo not drawn),"inconclusive: 18 µM [inhibitor, partial curve]"
5,O=C(Nc1cccc(-c2nc3ccccc3s2)c1)N1CCC(O)C1 (stereo not drawn),active: 8.81 µM
6,COc1ccccc1-c1noc(-c2ccc(N3CCN(C)CC3)c([N+](=O)[O-])c2)n1,active: 4.95 µM
7,Cc1ccc(C2Cn3nnc(C(=O)N4CCC(C(=O)NC5CC5)CC4)c3CO2)cc1 (stereo not drawn),"inconclusive: 7.85 µM [inhibitor, partial curve]"
8,Nc1nccc(-c2c(-c3ccc(F)cc3)ncn2C2CCNCC2)n1,inactive
9,CSc1ccc(C(=O)Nc2ccc(-c3nc4ccccc4s3)c(O)c2)cc1,inactive
10,COc1ccc2oc(=O)c(C(=O)Nc3cccc(C(=O)O)c3)cc2c1,active: 0.0157 µM
11,O=C(Nc1cccc(F)c1)C1CCN(C(=O)c2ncn3c2COC(c2ccccc2)C3)CC1 (stereo not drawn),active: 0.881 µM
12,O=C(N1c2ccccc2CC1c1noc(C2CCOCC2)n1)C1(c2ccccc2)CC1 (stereo not drawn),"inconclusive: 12.4 µM [inhibitor, partial curve, poor fit]"
13,O=C(NCCc1ccccc1)c1ccc2c(c1)nc1n2CCOC1,active: 8.81 µM
14,COc1cccc(CN2CCc3c(cc(C(=O)Nc4cc(C)ccc4OC)n3C)C2)c1,inactive
15,CC(C)Oc1ccc(C(=O)Nc2nnc3n2CCS3)cc1,"inconclusive: 17.6 µM [inhibitor, single point]"
16,N#Cc1c(-n2ncnc2-c2ccccc2Cl)sc2c1CCCCC2,active: 2.21 µM
17,COc1ccc(NC(=O)C2CCN(C(=O)c3ncn4c3COC(c3ccccc3)C4)CC2)cc1 (stereo not drawn),"inconclusive: 7.85 µM [inhibitor, partial curve]"
18,Cc1cc(-c2cccc(COc3ccc4c(cnn4CC[S+](C)(=O)[O-])c3)c2)ccn1,"inconclusive: 18 µM [inhibitor, partial curve]"
19,CC(C)c1ccc(NC(=O)c2ccc(CN3C(=O)NC4(CCOCC4)C3=O)cc2)cc1,active: 3.51 µM
20,OCCN1CCN(c2nc(N3CCCCC3)c3cnn(-c4ccc(Cl)cc4)c3n2)CC1,inactive
21,O=c1oc2ccc(F)cc2cc1-c1nc(-c2cccs2)no1,"inconclusive: 3.13 µM [inhibitor, full curve]"
22,OC1CCN(c2ncnc3c2cnn3-c2ccccc2)CC1,"inconclusive: 15.7 µM [inhibitor, partial curve]"
